# Source: patent publication US12667625B2, “Antibody-drug conjucates and their uses for the treatment of cancer” (INATHERYS, priority 2018, dated 2026)
# How the values were obtained:
# THP-1 cell line (CD71+) = test: Comparative binding on THP-1 cell line by flow cytometry; conditions: biotinylated antibodies, serial dilutions 5 to 0.05 ug/mL, streptavidin Alexa F488
# Protocol: (§1) Serial dilutions (5 to 0.05 ug/mL) of both biotinylated antibodies (antibody A24 and antibody of ADC INA01-SDV1) were performed and incubated on THP-1 and MEC-1 cell lines. The binding of the diluted antibodies was detected by Flow cytometry using streptavidin Alexa F488 (available at ThermoFisher scientific).
# MEC-1 cell line (CD71+) = test: Comparative binding on MEC-1 cell line by flow cytometry; conditions: biotinylated antibodies, serial dilutions 5 to 0.05 ug/mL, streptavidin Alexa F488
# Protocol: as §1
# Ramos cell line = test: Inhibition of cell proliferation, CellTiter-Glo cell viability assay, Ramos; type: cell-based; conditions: 96 hours, from 0 to 20 µg/ml
# Protocol: (§2) Inhibition of cell proliferation was measured by using the cell viability assay CellTiter-Glo® by Promega according the manufacturer protocol. Briefly, cells were plated in 48-wells plate and incubated during 96 hours in presence or not of increasing concentration of INA01-SDV1 (from 0 to 20 µg/ml).
# THP-1 cell line = test: Inhibition of cell proliferation, CellTiter-Glo cell viability assay, THP-1; type: cell-based; conditions: 96 hours, from 0 to 20 µg/ml
# Protocol: as §2
# [1] = Toxicology analysis in wild-type B6 and TfR/Tf 2Ki mice, pathological analysis of organs; type: in vivo; conditions: 5 injections at 3 mg/kg every 4 days, IP; for pathological analysis, Heart / pathological analysis, Liver: 3 mg/kg
# Protocol: Toxicology analysis of the INA01-SDV #1 was assessed in wild-type B6 (WT) mice and CD71/transferrin double knocking mice (TfR/Tf 2Ki). Mice were injected IP with 5 injections of INA01-SDV #1 at 3 mg/kg every 4 days and sacrificed two days after the last injection.
# FIG. 6 represents the macroscopic organ analysis in WT (FIG. 6A) and TfR/Tf 2Ki mice (FIG. 6B). Table 7 below represents the independent pathological analysis of each organ depicted in FIGS. 6A and 6B.
# [2] = system: peripheral blood mononuclear cells (PBMC); test: TNF-α secretion by PBMC (ELISA); type: cell-based, human; conditions: 24 hours, air-dried, wet-coated or aqueous, 0.1, 1 or 10 μg/ml
# Protocol: To assess if INA01-SDV #1 could induce a cytokine release syndrome (CRS) in patients, TNF-α secretion by peripheral blood mononuclear cells (PBMC) was tested. TNF-α production was tested after incubation of PBMC with INA01-SDV #1 in three different conditions which represent different concentration of the ADC: highly coated (air-dried), lower coated (wet-coated) or in solution (aqueous).
# PBMC were separated by Ficoll and suspended in culture medium with INA01-SDV #1 Air-dried, wet-coated or aqueous at 0.1, 1 or 10 μg/ml as previously reported for several activation procedures (Findlay L et al. J. Immunol. Meth 2008; Stebbings R et al. J. Immunol. 2007). After incubation for 24 hours at 37° C., TNF-α was assessed by enzyme-linked immunosorbent assay (ELISA). A DuoSet ELISA Development kit that contains the basic components required for the development of sandwich ELISAs to measure natural and recombinant human TNF-alpha were used.
# INA01-SDV #1 is presented to PBMC in three different protocols: Air-dried, wet-coated or aqueous. • Air-dried: INA01-SDV #1 was added at 5× working concentration in 50 ul (for a final concentration of 0.1, 1 and 10 μg/ml). The plate was kept under the hood overnight, then washed twice. • Wet-coated: INA01-SDV #1 was added at 5× working concentration in 200 ul (for a final concentration of 0.1, 1 and 10 μg/ml). […]
molecule,measurement,setting,value
"INA01-SDV1: ADC: anti-TfR antibody mAb1 (INA01), APN linker of formula (IV), valine-citrulline, para-aminobenzyl ester, MMAE (conjugate, non-natural residues, ADC: anti-TfR antibody mAb1 (INA01), APN linker of formula (IV), valine-citrulline, para-aminobenzyl ester, MMAE) heavy: QVQLVQSGPELKKPGASVKVSCKASGYTFTNQGMNWVKQAPGKGLKWMGWINTYTGEPINADDFKGRFVISLDTSASTAYLQISSLKAEDTAVYFCVREGWDSMDYWGQGTSVTVSSASTKGPSVFPLAPCSRSTSESTAALGCLVKDYFPEPVTVSWNSGALTSGVHTFPAVLQSSGLYSLSSVVTVPSSSLGTKTYTCNVDHKPSNTKVDKRV[human IgG4 Fc with S228P (EU numbers) not shown] light: QIVLTQSPATLSVSPGERATLSCSASSSVNYMHWFQQKPGQSPRLLIYSTSNRATGIPARFSGSGSGTSYTLTISSLEPEDFAVYYCQQRSSYPLTFGQGTKLEIKRTVAAPSVFIFPPSDEQLKSGTASVVCLLNNFYPREAKVQWKVDNALQSGNSQESVTEQDSKDSTYSLSSTLTLSKADYEKHKVYACEVTHQGLSSPVTKSFNRGEC",affinity to the CD71+ cell line (binding),THP-1 cell line (CD71+),identical affinity
same,affinity to the CD71+ cell line (binding),MEC-1 cell line (CD71+),identical affinity
same,cellular viability,Ramos cell line,Cellular viability was impaired
same,cellular viability,THP-1 cell line,Cellular viability was impaired
same,"pathological analysis, Lung",[1]; TfR/Tf KI mouse,Some macrophages
same,"pathological analysis, Spleen",[1]; TfR/Tf KI mouse,Small hematopoiesis
same,"pathological analysis, Heart",[1]; TfR/Tf KI mouse,Some Irregularities in; also recorded: Irregularity in some
same,"pathological analysis, Liver",[1]; TfR/Tf KI mouse,Small hematopoiesis; also recorded: No necrosis; also recorded: No Steatosis; also recorded: No Fibrosis
same,"pathological analysis, Lung",[1]; Wild-type mouse,Some macrophages
same,"pathological analysis, Spleen",[1]; Wild-type mouse,Small hematopoiesis
same,"pathological analysis, Heart",[1]; Wild-type mouse,Some Irregularities in; also recorded: Irregularity in some
same,"pathological analysis, Liver",[1]; Wild-type mouse,Small hematopoiesis; also recorded: No necrosis; also recorded: No Steatosis; also recorded: No Fibrosis
same,TNF-α release,[2],no TNF-α was released

# Entries after “also recorded” stand apart in the source; their conditions may differ.
